About 100 (0.036%) of roughly 280,000 compounds were called active. Inconclusive means that the source gave no clear call. Such entries were picked first, then a sample of the others. The call rests on the fitted dose curve; in most records, active means well fitted inhibition curve with a large enough effect in the signal ratio, with a control signal flat (not every such curve was filed as active); inconclusive means small, poorly fitted or top-dose-only effect, or effect the other way, or a change in a side signal; inactive means no such curve, though single readings can be large or run the other way; the % refers to the signal ratio. Potencies beside an inconclusive call are fits to weak or partial responses and may not hold up. A note “side channel” means that the fit belongs to a control or component signal, not to the main read-out.
Target: Muscleblind-like protein 1 (Homo sapiens) (UniProt Q9NR56)
Assay: qHTS Assay for Inhibitors of MBNL1-poly(CUG) RNA binding
Conditions: TR-FRET MBNL1-His/biotin-(CUG)12 binding, 665/545 ratio; activity change, negative = inhibition: at 57.5 µM (top of the series)
Outline: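 Inhibition of protein-RNA binding appears as loss of TR-FRET between terbium anti-His antibody on MBNL1-His and streptavidin-XL665 on biotin-(CUG)12. Activity is normalized to buffer-only and uninhibited-complex controls.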
On the % scale 0 is the no-effect control and ±100 the full control effect; potency means the concentration at half of the fitted maximal effect; tags describe the fitted curve by direction and shape or compound fluorescence and quenching.

UniProt Q9NR56, sequence (Q9NR56 whole entry, looked up): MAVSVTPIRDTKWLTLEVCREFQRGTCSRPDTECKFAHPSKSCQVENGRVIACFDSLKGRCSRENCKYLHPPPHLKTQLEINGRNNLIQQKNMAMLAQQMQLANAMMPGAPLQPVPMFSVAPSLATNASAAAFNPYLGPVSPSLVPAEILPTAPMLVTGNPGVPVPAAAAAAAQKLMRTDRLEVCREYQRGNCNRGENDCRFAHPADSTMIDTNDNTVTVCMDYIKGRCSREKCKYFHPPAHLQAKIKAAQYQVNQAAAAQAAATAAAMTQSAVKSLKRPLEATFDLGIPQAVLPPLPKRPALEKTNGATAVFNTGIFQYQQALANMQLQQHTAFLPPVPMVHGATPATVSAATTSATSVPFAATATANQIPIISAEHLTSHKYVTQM

Row | Structure (SMILES) | Potency | activity change, negative = inhibition
1 | N#CCCNC(=O)Cn1c(COc2ccc(Cl)cc2)nc2ccccc21 | inconclusive: 28.2 µM [fluorescent, side channel, partial curve] | 
2 | CCN(CC)c1ccc(C=Nc2ccc(C)cc2)c(O)c1 | inconclusive: 63.1 µM [inhibitor, single point] | 
3 | O=S(=O)(Nc1ccc(F)cc1)c1cccc2nsnc12 | inconclusive: 15.8 µM [quencher, side channel, partial curve] | 
4 | c1ccc(C[n+]2cccc(-c3ccccc3)c2)cc1 | inconclusive: 0.112 µM [fluorescent, side channel, full curve, poor fit] | 
5 | COc1ccc(N2CC(NC(=O)NCC(C)C)CC2=O)cc1 (stereo not drawn) | inconclusive: 3.16 µM [quencher, side channel, single point] | 
6 | COc1cccc(/C=N/NC(=O)CSc2cccc3cccnc23)c1 | inconclusive: 15.8 µM [quencher, side channel, partial curve] | 
7 | Cc1cccc(CN2CCN(C(=O)CCl)CC2)c1 | inconclusive: 0.631 µM [fluorescent, side channel, partial curve, poor fit] | 
8 | Cc1ncsc1CCOC(=O)c1ccc(N2CCOCC2)c([N+](=O)[O-])c1 | inconclusive: 17.8 µM [quencher, side channel, partial curve] | 
9 | Cc1cc(C(=O)NCCN2CCCCC2C)n(-c2ccccc2)n1 (stereo not drawn) | inconclusive: 39.8 µM [quencher, side channel, single point] | 
10 | COc1ccc(-c2nc3ccccc3n2Cc2ccc(C)cc2)cc1 |  | inactive: 2.79%
11 | COc1ccc(NC(=O)c2cc3nc(-c4ccccc4)cc(C)n3n2)cc1OC | inconclusive: 15.8 µM [quencher, side channel, partial curve] | 
12 | COc1ccc(CNC(=O)C2CCN(S(=O)(=O)c3cccc4cccnc34)CC2)cc1 | inconclusive: 20 µM [inhibitor, partial curve] | 
13 | COc1cc(OC)cc(-c2cc(N)n(S(=O)(=O)c3cccc4nsnc34)n2)c1 | inconclusive: 20 µM [quencher, side channel, partial curve] | 
14 | C/C=C/c1ccc(OCCOc2ccc(C=O)cc2OC)c(OC)c1 | inconclusive: 2.24 µM [fluorescent, side channel, single point] | 
15 | COc1ccccc1-n1c(CNC(=O)c2cccs2)n[nH]c1=S |  | inactive: -3.45%
16 | CNC(=O)COC(=O)c1ccc([N+](=O)[O-])cc1Cl | inconclusive: 6.31 µM [activator, partial curve] | 
17 | Cc1ccc(Nc2c([N+](=O)[O-])ccc3nonc23)c(C)c1 | inconclusive: 3.16 µM [quencher, side channel, full curve] | 
18 | NNC(=O)CSCc1ccc(Cl)cc1Cl | inconclusive: 0.708 µM [fluorescent, side channel, single point] | 
19 | COC(=O)C(CCCCNC(=O)c1ccc([N+](=O)[O-])cc1)NC(=O)c1ccc([N+](=O)[O-])cc1 (stereo not drawn) | inconclusive: 11.2 µM [quencher, side channel, partial curve] | 

Row | Structure (SMILES) | Potency | activity change, negative = inhibition
20 | O=C(CNC(=O)c1ccco1)OCC(=O)c1ccc2ccccc2c1 | inconclusive: 17.8 µM [quencher, side channel, partial curve] | 
21 | O=C(N/N=C\c1ccc2c(c1)OCO2)c1ccc(Cn2cc(Br)c([N+](=O)[O-])n2)o1 | inconclusive: 3.16 µM [quencher, side channel, partial curve] | 
22 | O=C(COC(=O)CCSc1ccc(Cl)cc1)Nc1ccc(F)cc1 |  | inactive: -12.4%
23 | Cc1nc2c(C)cccc2cc1C(=O)N/N=C/c1ccc(N(C)C)cc1 |  | inactive: 6.68%
24 | O=C(Cn1nnnc1CN1CCOCC1)N1CCC(c2cccc(Cl)c2)C1 (stereo not drawn) |  | inactive: 7.34%
25 | CCN(CC)CCSc1nnc2c3cc(C)ccc3n(Cc3ccccc3)c2n1 | inconclusive: 20 µM [quencher, side channel, partial curve] | 
26 | COc1ccc2oc(C(=O)C3CC3)c(N)c2c1 | inconclusive: 20 µM [quencher, side channel, single point] | 
27 | CCn1cc(C(=O)NCC(OC)OC)c(=O)c2cc(S(=O)(=O)N3CCOCC3)ccc21 |  | inactive: -8.25%
28 | COc1ccc(Br)cc1/C=N/NC(=O)C(c1ccncc1)N1CCOCC1 (stereo not drawn) | inconclusive: 39.8 µM [quencher, side channel, single point] | 
29 | COc1ccccc1NC(=O)Cc1cccs1 |  | inactive: 3.64%
30 | CCC(C)n1c(-c2cc(OC)c(OC)c(OC)c2)nc2nc3ccccc3nc21 (stereo not drawn) | inconclusive: 12.6 µM [quencher, side channel, partial curve, poor fit] | 
31 | Nc1ccc(C(=O)n2c3ccccc3c3ccccc32)cc1 | inconclusive: 25.1 µM [quencher, side channel, single point] | 
32 | CCCCCC(=O)N/N=C/c1ccc([N+](=O)[O-])o1 | inconclusive: 7.08 µM [quencher, side channel, partial curve] | 
33 | CCc1ccc(S(=O)(=O)/N=C2/C=C(Sc3ncn[nH]3)C(=O)c3ccccc32)cc1 | inconclusive: 15.8 µM [quencher, side channel, partial curve] | 
34 | O=C(CCCNS(=O)(=O)c1cccc2nsnc12)NCc1ccc(Cl)cc1 | inconclusive: 12.6 µM [quencher, side channel, partial curve] | 
35 | O=C(Cc1ccc([N+](=O)[O-])cc1)Nc1cccnc1 | inconclusive: 22.4 µM [quencher, side channel, single point] | 
36 | CS(=O)(=O)N(CC(=O)Nc1ccc(CC#N)cc1)c1ccc(C23CC4CC(CC(C4)C2)C3)cc1 | inconclusive: 0.398 µM [quencher, side channel, single point] | 
37 | CCCCC(=O)Nc1ccc(C(=O)NNC(=S)NC(=O)c2ccccc2[N+](=O)[O-])cc1 | inconclusive: 25.1 µM [quencher, side channel, partial curve] | 
38 | CCOc1ccc(-c2nnc(NC(=O)Cc3cc(OC)c(OC)c(OC)c3)o2)cc1 | inconclusive: 0.708 µM [fluorescent, side channel, single point] | 
